# The supplement of paper PMC8728848
# The list shows a part of the results.
# B1: PX9961U-pdi-543-24-543 (Parabacteroides distasonis) (protein)
# chain: EEPVGEFLPGQVESEENIEGIVTGAYAVLDGYYASDAINSGCSNWQFGDVVSDDAYKGGGGTGDQNQIHLMEIFNANPTGIDFEARWAALYEGIKRCNQAIRLLNGSEVKNKEQRLAEMRFLRGHYYFNLKIIYNQIPWIDETLVDPNEYNKKSNIEFSSDQLWEKILEEFSAAYKVLPESQADYGRPTKMAARAYMAKVYLYQSKWKECLEACDEVIQSGKYELFPDFRNVFLPENDNCSEIIFAIQLSINDGSPNNENGSYGDRLLPPGGPYPVYGFLRPTQNLVNAYKTDVKGLPYNDGKDVSENDYVDVRLDHTLARPNIPFMDVQLYDWTPREASVYGPYSPKKRLVSLNSTYYSPIWPYVNALNFYVIRYADLLLWRAEAAIETGDLETGRKYINMIRERAKNTQHVKTMDQSQDAANYKVGVYDEPFKSKNEAVQALRMERRLEMAHEGIRFFDLVRWGVADEVINAYIAKEKVFRSHLQNAHFVKGKHEYFPIPQSMIDICGTEVMKQNPGY
# How the values were obtained:
# Assay in all cases: glycan array binding signal (z-score within array); higher = stronger binding
# Conditions in all cases: glycan notation: IUPAC condensed, linker removed
# [1] = target: Neu5Ac(a2-6)Gal(b1-4)GlcNAc(b1-3)Gal(b1-4)GlcNAc(b1-3)Gal(b1-4)GlcNAc(b1-2)Man(a1-3)[Neu5Ac(a2-6)Gal(b1-4)GlcNAc(b1-3)Gal(b1-4)GlcNAc(b1-3)Gal(b1-4)GlcNAc(b1-2)Man(a1-6)]GalNAc
# Procedure, shortened: (§1)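 Columns mapping to the same glycan were averaged after glycan names were converted to IUPAC-condensed notation. The data come from 3228 arrays in the Consortium for Functional Glycomics database, limited to those with an available protein sequence. Binding is reported as a within-array Z-score averaged across arrays of one protein sequence and across linkers.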
# [2] = target: Neu5Ac(a2-6)Gal(b1-4)GlcNAc(b1-3)Gal(b1-4)GlcNAc(b1-3)GalNAc
# Procedure, shortened: as §1
# [3] = target: Neu5Ac(a2-6)Gal(b1-4)GlcNAc(b1-3)Gal(b1-4)GlcNAc(b1-3)[Neu5Ac(a2-6)Gal(b1-4)GlcNAc(b1-3)Gal(b1-4)GlcNAc(b1-6)]GalNAc
# Procedure, shortened: as §1
# [4] = target: Neu5Ac(a2-6)Gal(b1-4)GlcNAc(b1-3)Gal(b1-4)GlcNAc(b1-6)[Gal(b1-3)]GalNAc
# Procedure, shortened: as §1
# [5] = target: Neu5Ac(a2-6)Gal(b1-4)GlcNAc(b1-3)Gal(b1-4)[Fuc(a1-3)]GlcNAc(b1-3)Gal(b1-4)[Fuc(a1-3)]GlcNAc
# Procedure, shortened: as §1
# [6] = target: Neu5Ac(a2-6)Gal(b1-4)GlcNAc(b1-3)GalNAc
# Procedure, shortened: as §1
# [7] = target: Neu5Ac(a2-6)Gal(b1-4)GlcNAc(b1-3)[Neu5Ac(a2-6)Gal(b1-4)GlcNAc(b1-6)]GalNAc
# Procedure, shortened: as §1
# [8] = target: Neu5Ac(a2-6)Gal(b1-4)GlcNAc(b1-6)GalNAc
# Procedure, shortened: as §1
# [9] = target: Neu5Ac(a2-6)Gal(b1-4)GlcNAc(b1-6)[Gal(b1-3)GlcNAc(b1-3)]Gal(b1-4)Glc
# Procedure, shortened: as §1
# [10] = target: Neu5Ac(a2-6)Gal(b1-4)GlcNAc(b1-6)[Gal(b1-3)]GalNAc
# Procedure, shortened: as §1
# [11] = target: Neu5Ac(a2-6)Gal(b1-4)GlcNAc6S
# Procedure, shortened: as §1
# Neu5Ac(a2-6)GalNAc = target: Neu5Ac(a2-6)GalNAc
# Procedure, shortened: as §1
# [12] = target: Neu5Ac(a2-6)GalNAc(b1-4)GlcNAc
# Procedure, shortened: as §1
# [13] = target: Neu5Ac(a2-6)GalNAc(b1-4)GlcNAc6S
# Procedure, shortened: as §1
# [14] = target: Neu5Ac(a2-6)GlcNAc(b1-4)GlcNAc
# Procedure, shortened: as §1
# [15] = target: Neu5Ac(a2-6)GlcNAc(b1-4)GlcNAc(b1-4)GlcNAc
# Procedure, shortened: as §1
# Neu5Ac(a2-8)Neu5Ac = target: Neu5Ac(a2-8)Neu5Ac
# Procedure, shortened: as §1
# [16] = target: Neu5Ac(a2-8)Neu5Ac(a2-3)Gal(b1-3)GalNAc(b1-4)[Neu5Ac(a2-3)]Gal(b1-4)Glc
# Procedure, shortened: as §1
# [17] = target: Neu5Ac(a2-8)Neu5Ac(a2-3)Gal(b1-3)GalNAc(b1-4)[Neu5Ac(a2-8)Neu5Ac(a2-3)]Gal(b1-4)Glc
# Procedure, shortened: as §1
# [18] = target: Neu5Ac(a2-8)Neu5Ac(a2-3)Gal(b1-4)Glc
# Procedure, shortened: as §1
# [19] = target: Neu5Ac(a2-8)Neu5Ac(a2-3)Gal(b1-4)GlcNAc
# Procedure, shortened: as §1
# [20] = target: Neu5Ac(a2-8)Neu5Ac(a2-3)[Gal(b1-3)GalNAc(b1-4)]Gal(b1-4)Glc
# Procedure, shortened: as §1
# [21] = target: Neu5Ac(a2-8)Neu5Ac(a2-3)[GalNAc(b1-4)]Gal(b1-4)Glc
# Procedure, shortened: as §1
# [22] = target: Neu5Ac(a2-8)Neu5Ac(a2-8)Neu5Ac
# Procedure, shortened: as §1
# [23] = target: Neu5Ac(a2-8)Neu5Ac(a2-8)Neu5Ac(a2-3)Gal(b1-4)Glc
# Procedure, shortened: as §1
# [24] = target: Neu5Ac(a2-8)Neu5Ac(a2-8)Neu5Ac(a2-3)[Gal(b1-3)GalNAc(b1-4)]Gal(b1-4)Glc
# Procedure, shortened: as §1
# [25] = target: Neu5Ac(a2-8)Neu5Ac(a2-8)Neu5Ac(a2-3)[GalNAc(b1-4)]Gal(b1-4)Glc
# Procedure, shortened: as §1
# [26] = target: Neu5Ac(a2-8)Neu5Ac(a2-8)Neu5Ac(a2-8)Neu5Ac(a2-3)[GalNAc(b1-4)]Gal(b1-4)Glc
# Procedure, shortened: as §1
# [27] = target: Neu5Ac(a2-8)Neu5Gc(a2-3)Gal(b1-4)GlcNAc
# Procedure, shortened: as §1
# [28] = target: Neu5Ac(b2-6)Gal(b1-4)GlcNAc
# Procedure, shortened: as §1
# Neu5Ac(b2-6)GalNAc = target: Neu5Ac(b2-6)GalNAc
# Procedure, shortened: as §1
# [29] = target: Neu5Ac9Ac(a2-3)Gal(b1-3)GlcNAc
# Procedure, shortened: as §1
# [30] = target: Neu5Ac9Ac(a2-3)Gal(b1-4)GlcNAc
# Procedure, shortened: as §1
# [31] = target: Neu5Ac9Ac(a2-6)Gal(b1-4)GlcNAc
# Procedure, shortened: as §1
# [32] = target: Neu5Gc(a2-3)Gal(b1-3)GlcNAc
# Procedure, shortened: as §1
# [33] = target: Neu5Gc(a2-3)Gal(b1-3)[Fuc(a1-4)]GlcNAc
# Procedure, shortened: as §1
# Neu5Gc(a2-3)Gal(b1-4)Glc = target: Neu5Gc(a2-3)Gal(b1-4)Glc
# Procedure, shortened: as §1
# [34] = target: Neu5Gc(a2-3)Gal(b1-4)GlcNAc
# Procedure, shortened: as §1
# [35] = target: Neu5Gc(a2-3)Gal(b1-4)GlcNAc(b1-3)Gal(b1-4)GlcNAc(b1-2)Man(a1-3)[Neu5Gc(a2-3)Gal(b1-4)GlcNAc(b1-3)Gal(b1-4)GlcNAc(b1-2)Man(a1-6)]Man(b1-4)GlcNAc(b1-4)GlcNAc
# Procedure, shortened: as §1
# [36] = target: Neu5Gc(a2-3)Gal(b1-4)[Fuc(a1-3)]GlcNAc
# Procedure, shortened: as §1
# [37] = target: Neu5Gc(a2-6)Gal(b1-4)GlcNAc
# Procedure, shortened: as §1
# Neu5Gc(a2-6)GalNAc = target: Neu5Gc(a2-6)GalNAc
# Procedure, shortened: as §1
# [38] = target: Neu5Gc(a2-8)Neu5Ac(a2-3)Gal(b1-4)GlcNAc
# Procedure, shortened: as §1
# [39] = target: Neu5Gc(a2-8)Neu5Gc(a2-3)Gal(b1-4)GlcNAc
# Procedure, shortened: as §1
# [40] = target: Neu5Gc(a2-8)Neu5Gc(a2-3)Gal(b1-4)GlcNAc(b1-3)Gal(b1-4)GlcNAc
# Procedure, shortened: as §1
binder,measurement,setting,value
B1,glycan array binding signal (z-score),[1],0.5
same,glycan array binding signal (z-score),[2],-0.37
same,glycan array binding signal (z-score),[3],-0.061
same,glycan array binding signal (z-score),[4],-0.238
same,glycan array binding signal (z-score),[5],0.556
same,glycan array binding signal (z-score),[6],1.92
same,glycan array binding signal (z-score),[7],0.015
same,glycan array binding signal (z-score),[8],-0.28
same,glycan array binding signal (z-score),[9],-0.485
same,glycan array binding signal (z-score),[10],-0.357
same,glycan array binding signal (z-score),[11],-0.381
same,glycan array binding signal (z-score),Neu5Ac(a2-6)GalNAc,-0.388
same,glycan array binding signal (z-score),[12],-0.417
same,glycan array binding signal (z-score),[13],-0.272
same,glycan array binding signal (z-score),[14],-0.419
same,glycan array binding signal (z-score),[15],-0.445
same,glycan array binding signal (z-score),Neu5Ac(a2-8)Neu5Ac,-0.402
same,glycan array binding signal (z-score),[16],-0.381
same,glycan array binding signal (z-score),[17],-0.469
same,glycan array binding signal (z-score),[18],-0.303
same,glycan array binding signal (z-score),[19],-0.326
same,glycan array binding signal (z-score),[20],-0.08
same,glycan array binding signal (z-score),[21],2.25
same,glycan array binding signal (z-score),[22],-0.447
same,glycan array binding signal (z-score),[23],-0.429
same,glycan array binding signal (z-score),[24],-0.416
same,glycan array binding signal (z-score),[25],-0.105
same,glycan array binding signal (z-score),[26],1.02
same,glycan array binding signal (z-score),[27],1.67
same,glycan array binding signal (z-score),[28],0.445
same,glycan array binding signal (z-score),Neu5Ac(b2-6)GalNAc,-0.348
same,glycan array binding signal (z-score),[29],-0.34
same,glycan array binding signal (z-score),[30],-0.394
same,glycan array binding signal (z-score),[31],-0.421
same,glycan array binding signal (z-score),[32],-0.43
same,glycan array binding signal (z-score),[33],-0.445
same,glycan array binding signal (z-score),Neu5Gc(a2-3)Gal(b1-4)Glc,-0.384
same,glycan array binding signal (z-score),[34],-0.327
same,glycan array binding signal (z-score),[35],-0.39
same,glycan array binding signal (z-score),[36],-0.202
same,glycan array binding signal (z-score),[37],-0.225
same,glycan array binding signal (z-score),Neu5Gc(a2-6)GalNAc,-0.498
same,glycan array binding signal (z-score),[38],-0.415
same,glycan array binding signal (z-score),[39],-0.359
same,glycan array binding signal (z-score),[40],-0.398
